{"source": "the RNAGym collection of RNA variant scans (doi:10.1073/pnas.2313332121)", "parents": {"B1": {"name": "TPR 5TU (parent)", "chain": "GGAUCUUCUCGAUCUAACAAAAAAGACAAAUCUGCCACAAAGCUUGAGAGCAUCUUCGGAUGCAGAGGCGGCAGCCUUCGGUGGCGCGAUAGCGCCAACGUUCUCAACUAUGACACGCAAAACGCGUGCUCCGUUGAAUGGAGUUUAUCAUG"}}, "note": "This sample is rich in variants without activity.", "data": [{"variants_of": "B1", "assay": "polymerase ribozyme fitness, log enrichment relative to wild type (log ratio); higher = more active; in vitro selection for triplet polymerase activity", "outline": "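Streptavidin-bead capture of gel-excised extended constructs, followed by RT-PCR, closed a single triplicate in vitro selection round. That round began by annealing PCR-built, transcribed mutant libraries of each subunit of a heterodimeric triplet polymerase ribozyme with a biotinylated primer, the partner subunit and triplets, then incubating them frozen at −7 °C. After Illumina sequencing of inputs and outputs, genotypes needed ≥10 input reads and ≥1 read per output. Fitness is the base-2 logarithm of genotype enrichment over wild-type enrichment, using inverse-variance-weighted replicate averages.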", "values": [{"variant": "A17U A20C C57A G71U C105G G141A", "polymerase ribozyme fitness (log ratio)": "≤ -4.2"}, {"variant": "A17C A26C C54U G86A U90C G140C", "polymerase ribozyme fitness (log ratio)": "≤ -4.2"}, {"variant": "A17U C54A G92U C149U", "polymerase ribozyme fitness (log ratio)": -2.92}, {"variant": "A17C G81U C85A C95U C105G A115U", "polymerase ribozyme fitness (log ratio)": -3.03}, {"variant": "A17U A91C", "polymerase ribozyme fitness (log ratio)": "≤ -4.2"}, {"variant": "A17U A91U", "polymerase ribozyme fitness (log ratio)": "≤ -4.2"}, {"variant": "C18A U56A G58C G94A", "polymerase ribozyme fitness (log ratio)": -0.964}, {"variant": "A17G A20U C57G G84U C93A C96G A119U G141A", "polymerase ribozyme fitness (log ratio)": "≤ -4.2"}, {"variant": "A17C G71C G84U G100U A107U", "polymerase ribozyme fitness (log ratio)": "≤ -4.2"}, {"variant": "C18U C75G U90C G92U C132U A150G", "polymerase ribozyme fitness (log ratio)": "≤ -4.2"}, {"variant": "A17U G25U G81U G94C G100U A115G", "polymerase ribozyme fitness (log ratio)": "≤ -4.2"}, {"variant": "C18G U45C C96U C116A U130C", "polymerase ribozyme fitness (log ratio)": "≤ -4.2"}, {"variant": "C18A A21C A37U G48U G83A G128A", "polymerase ribozyme fitness (log ratio)": "≤ -4.2"}, {"variant": "C18G A113G U134A", "polymerase ribozyme fitness (log ratio)": -3.95}, {"variant": "C18G U44A C96G G133A A137U", "polymerase ribozyme fitness (log ratio)": -4.04}, {"variant": "C18A U56A C85G C96A", "polymerase ribozyme fitness (log ratio)": -3.54}, {"variant": "C18U A28U G50C A66G C95G U135G", "polymerase ribozyme fitness (log ratio)": "≤ -4.2"}, {"variant": "C18U G25C G59U G71A U77G G94C C95U A122C U139G", "polymerase ribozyme fitness (log ratio)": "≤ -4.2"}, {"variant": "C18U A21G A22U U31A U45G C87U U135A A137G", "polymerase ribozyme fitness (log ratio)": "≤ -4.2"}, {"variant": "A17C A22U U33C G48A C75G C96A A107U", "polymerase ribozyme fitness (log ratio)": "≤ -4.2"}, {"variant": "A17U A23G A24U C57A G59U C85U A107G", "polymerase ribozyme fitness (log ratio)": "≤ -4.2"}, {"variant": "A17U C35A A47U A66C A73U G86A A91C U109G", "polymerase ribozyme fitness (log ratio)": "≤ -4.2"}, {"variant": "A17C A22G U44A C75G U90G C93G C103A", "polymerase ribozyme fitness (log ratio)": "≤ -4.2"}, {"variant": "C18U A47G A52U G68U C79A C93U C99A G141C A142G G143U", "polymerase ribozyme fitness (log ratio)": "≤ -4.2"}, {"variant": "A17G A37C A91G C99A A107G U139G G143U U148C", "polymerase ribozyme fitness (log ratio)": "≤ -4.2"}, {"variant": "C18U C72U U78G G128U", "polymerase ribozyme fitness (log ratio)": "≤ -4.2"}, {"variant": "A17U U31G G50C U78G U90G C96G", "polymerase ribozyme fitness (log ratio)": "≤ -4.2"}, {"variant": "C18G U134G U151A", "polymerase ribozyme fitness (log ratio)": "≤ -4.2"}, {"variant": "A17U A29U A37C C75U G80U G92A C125U A142C", "polymerase ribozyme fitness (log ratio)": "≤ -4.2"}, {"variant": "A17C U55A A60C U77G G88C C131A U135G U145G U148A", "polymerase ribozyme fitness (log ratio)": "≤ -4.2"}, {"variant": "C18A A22C G83C G143U", "polymerase ribozyme fitness (log ratio)": "≤ -4.2"}, {"variant": "A17U A30U U55G A64C C79A A89G A97G U104G G141C U148C", "polymerase ribozyme fitness (log ratio)": "≤ -4.2"}, {"variant": "A17G G50C A110C", "polymerase ribozyme fitness (log ratio)": "≤ -4.2"}, {"variant": "C18G G81A G94U C96A U104C G143U U148A A150C", "polymerase ribozyme fitness (log ratio)": "≤ -4.2"}, {"variant": "A17G G84U G126A", "polymerase ribozyme fitness (log ratio)": -1.39}, {"variant": "A17U A29U U55A G86U", "polymerase ribozyme fitness (log ratio)": "≤ -4.2"}, {"variant": "A17U C79U C85U A97U", "polymerase ribozyme fitness (log ratio)": "≤ -4.2"}, {"variant": "A17C A26C C87U", "polymerase ribozyme fitness (log ratio)": -1.83}, {"variant": "A17U G42A G81C G86U G92C G143C", "polymerase ribozyme fitness (log ratio)": "≤ -4.2"}, {"variant": "C18U A30U G65U G84U C105U", "polymerase ribozyme fitness (log ratio)": "≤ -4.2"}, {"variant": "A17G A52C C54U G86A C131G A142G", "polymerase ribozyme fitness (log ratio)": "≤ -4.2"}, {"variant": "C18A C36A C95U C96A A142G G152U", "polymerase ribozyme fitness (log ratio)": "≤ -4.2"}, {"variant": "A17U A24G A28U A41U A47G C79U G83C C95A G100A G126A U145A A150C", "polymerase ribozyme fitness (log ratio)": "≤ -4.2"}, {"variant": "A17C G59A A60C G81C C95U C116U", "polymerase ribozyme fitness (log ratio)": 0.238}, {"variant": "C18G C54U U78C", "polymerase ribozyme fitness (log ratio)": -2.12}, {"variant": "C18U G50C G88C C99U", "polymerase ribozyme fitness (log ratio)": "≤ -4.2"}, {"variant": "A17G A21C A28C G74C G86C C99G A107U U127A G143U", "polymerase ribozyme fitness (log ratio)": "≤ -4.2"}, {"variant": "C18G A24U A47C U78A G84U C116U", "polymerase ribozyme fitness (log ratio)": "≤ -4.2"}, {"variant": "C18G G92U U130G", "polymerase ribozyme fitness (log ratio)": -4.01}, {"variant": "C18U C85U A106C U130A", "polymerase ribozyme fitness (log ratio)": "≤ -4.2"}, {"variant": "C18U C54G G70A G92A C125U G143A C149A", "polymerase ribozyme fitness (log ratio)": "≤ -4.2"}, {"variant": "A17G A49C G59U G92A U102G U135G", "polymerase ribozyme fitness (log ratio)": "≤ -4.2"}, {"variant": "A17U A19C A24G C87G U90A U111C G141A", "polymerase ribozyme fitness (log ratio)": "≤ -4.2"}, {"variant": "A17U G48A G88A A91U G92A U130G U145C", "polymerase ribozyme fitness (log ratio)": "≤ -4.2"}, {"variant": "A17G C18A A19C A64U G70C C125G", "polymerase ribozyme fitness (log ratio)": "≤ -4.2"}, {"variant": "A17U C95U", "polymerase ribozyme fitness (log ratio)": -0.895}, {"variant": "A17U A21U C43U G71A C75U C93A C114U A120U U151G", "polymerase ribozyme fitness (log ratio)": "≤ -4.2"}, {"variant": "A17G C36G C79A C95U A97U G117U G126U", "polymerase ribozyme fitness (log ratio)": -4.08}, {"variant": "C18G U90A", "polymerase ribozyme fitness (log ratio)": "≤ -4.2"}, {"variant": "A17U U82G G84C A110G A119U U139C", "polymerase ribozyme fitness (log ratio)": "≤ -4.2"}, {"variant": "A17U C43U C96U G100A U148G", "polymerase ribozyme fitness (log ratio)": "≤ -4.2"}, {"variant": "A17G A19U U53A U56G A60U C69G U111G A142G", "polymerase ribozyme fitness (log ratio)": "≤ -4.2"}, {"variant": "C18G A49C G81A C96U", "polymerase ribozyme fitness (log ratio)": "≤ -4.2"}, {"variant": "A17C C35U A60G G80A C87A A98G U151G", "polymerase ribozyme fitness (log ratio)": "≤ -4.2"}, {"variant": "C18G A24C G34A C57A C85U A89U A97G A120G A121U", "polymerase ribozyme fitness (log ratio)": "≤ -4.2"}, {"variant": "A17U C76U C96U", "polymerase ribozyme fitness (log ratio)": 0.123}, {"variant": "A17G A52U G83A C95U", "polymerase ribozyme fitness (log ratio)": -3.91}, {"variant": "A17G A19U G94C G143U U145G", "polymerase ribozyme fitness (log ratio)": "≤ -4.2"}, {"variant": "C18U A22G A49C G86A C131G", "polymerase ribozyme fitness (log ratio)": -4.14}, {"variant": "A17C A20C C108G", "polymerase ribozyme fitness (log ratio)": "≤ -4.2"}, {"variant": "A17G A39C G68C C93G", "polymerase ribozyme fitness (log ratio)": "≤ -4.2"}, {"variant": "A17G G50U", "polymerase ribozyme fitness (log ratio)": 0.372}, {"variant": "C18G G59A C75U U90C C93A U102C C105U C149G", "polymerase ribozyme fitness (log ratio)": "≤ -4.2"}, {"variant": "A17U A23U A26C U55G G81C A142U", "polymerase ribozyme fitness (log ratio)": "≤ -4.2"}, {"variant": "C18U G59U C76U C85U G88C C108U", "polymerase ribozyme fitness (log ratio)": "≤ -4.2"}, {"variant": "C18G G34A C36G G92C C96A A121U C131A", "polymerase ribozyme fitness (log ratio)": "≤ -4.2"}, {"variant": "C18G A23C A28G G50U U53A C85G G92U", "polymerase ribozyme fitness (log ratio)": "≤ -4.2"}, {"variant": "C18G A26U C54G G80C G83C C87U A107U G141C U148C", "polymerase ribozyme fitness (log ratio)": "≤ -4.2"}, {"variant": "A17C G48C C93G", "polymerase ribozyme fitness (log ratio)": -3.01}, {"variant": "C18G A19U G83U C95U C118U U144A", "polymerase ribozyme fitness (log ratio)": -3.01}, {"variant": "A17C C36A G84A G92A C114A", "polymerase ribozyme fitness (log ratio)": "≤ -4.2"}, {"variant": "C18A A22C G48A G88U G143U", "polymerase ribozyme fitness (log ratio)": "≤ -4.2"}, {"variant": "C18G A26C C54A G62A C76G C87A A97C A150U", "polymerase ribozyme fitness (log ratio)": "≤ -4.2"}, {"variant": "A17C A29U U145A", "polymerase ribozyme fitness (log ratio)": "≤ -4.2"}]}]}
